Laboratory results: US20230303648A1 (OSE IMMUNOTHERAPEUTICS, published 2023)
Values belong to the binder of their own block, whether it stands above or below them.

Legend:
[1] = target: T1, CD127 recombinant protein (Histidine tagged, Sino ref 10975-H08H) (UniProt P16871 21-239); assay: double binding ELISA: PD-1 immobilised, revelation with CD127 receptor (given as ED50)
T1 construct: bought; used in the CD127 sandwich ELISA; also called CD127 receptor; IL-7Ralpha; not shown: histidine tag
T1 sequence (looked up): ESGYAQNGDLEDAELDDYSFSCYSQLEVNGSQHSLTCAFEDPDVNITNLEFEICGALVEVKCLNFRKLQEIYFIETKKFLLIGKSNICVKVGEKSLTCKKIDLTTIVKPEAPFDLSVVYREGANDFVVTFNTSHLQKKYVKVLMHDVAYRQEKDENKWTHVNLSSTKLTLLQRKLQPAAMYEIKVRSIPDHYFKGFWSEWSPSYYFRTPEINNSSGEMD

[2] = target: T2, recombinant human PD-1 (rPD1; Sino Biologicals, reference 10377-H08H) (human, UniProt Q15116 partial chain); assay: ELISA: human PD-1 immobilised (given as ED50)
UniProt Q15116, sequence (Q15116 25-167 limits assumed): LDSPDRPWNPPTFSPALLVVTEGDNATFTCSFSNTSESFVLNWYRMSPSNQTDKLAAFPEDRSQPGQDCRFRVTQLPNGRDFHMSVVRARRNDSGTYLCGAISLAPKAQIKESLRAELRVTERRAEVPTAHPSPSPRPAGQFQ
T2 construct: bought; also called hPD1; PD-1 receptor

[3] = target: T2, recombinant human PD-1 (rPD1; Sino …); assay: ELISA, recombinant human PD-1 immobilised, anti-human Fc-peroxidase, TMB, 450 nm [Following) C]
[4] = target: T1, CD127 recombinant protein (Histidine …); assay: sandwich ELISA: PD-1 immobilised, fusion preincubated with His-tagged CD127, anti-His detection
[5] = target: T3, IL-7 receptor (IL-7R: CD127/CD132) on cells (human, UniProt P16871 21-459; P31785 23-369); assay: cell-based or functional assay
T3 sequence (looked up) 1: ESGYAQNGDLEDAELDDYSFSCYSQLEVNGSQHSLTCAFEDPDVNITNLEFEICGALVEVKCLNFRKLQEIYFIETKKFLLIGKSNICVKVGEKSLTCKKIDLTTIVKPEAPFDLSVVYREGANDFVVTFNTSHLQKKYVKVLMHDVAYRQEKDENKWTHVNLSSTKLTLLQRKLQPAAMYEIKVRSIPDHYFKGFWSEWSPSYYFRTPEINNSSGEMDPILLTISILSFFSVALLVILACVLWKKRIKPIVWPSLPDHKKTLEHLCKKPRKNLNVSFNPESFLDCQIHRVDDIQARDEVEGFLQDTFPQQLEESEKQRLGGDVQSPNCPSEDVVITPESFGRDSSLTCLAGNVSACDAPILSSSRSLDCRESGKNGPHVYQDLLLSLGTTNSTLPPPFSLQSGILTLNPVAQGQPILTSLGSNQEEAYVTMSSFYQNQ
T3 sequence (looked up) 2: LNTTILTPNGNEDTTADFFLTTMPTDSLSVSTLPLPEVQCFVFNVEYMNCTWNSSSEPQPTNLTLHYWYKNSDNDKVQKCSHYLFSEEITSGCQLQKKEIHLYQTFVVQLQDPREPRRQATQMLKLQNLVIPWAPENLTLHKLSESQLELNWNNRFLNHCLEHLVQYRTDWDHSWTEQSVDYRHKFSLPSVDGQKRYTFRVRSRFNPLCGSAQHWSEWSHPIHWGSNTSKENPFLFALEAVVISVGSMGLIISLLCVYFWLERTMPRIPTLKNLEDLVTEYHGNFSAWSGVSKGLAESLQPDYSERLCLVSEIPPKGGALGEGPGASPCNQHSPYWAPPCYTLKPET

[6] = target: T4, CD127 (Sinobiological, 10975-H03H-50) (UniProt P16871 21-239); assay: Biacore: CD127 immobilised on CM5 chip, fusion as analyte (0.35-30 nM), two-state reaction model
T4 construct: bought; immobilised on the CM5 chip in the Biacore assays; also called CD127 receptor
T4 sequence (looked up): T1 sequence (looked up)

B1: anti-PD-1 bifunctional molecule comprising IL-7 D74N, GGGGS linker, IgG1N298A isotype (other)
heavy: QIQLVQSGSELKKPGASVKVSCKASGYTFTHYAMNWVRQAPGQGLEWMGWINTNTGEPTYAQGFTGRFVFSLDTSVSTAYLQISSLKAEDTAVYYCAREREPGMDNWGQGTLVTVSS[… human IgG1 constant region with changes …]GGGGSDCDIEGKDGKQYESVLMVSIDQLLDSMKEIGSNCLNNEFNFFKRHICDANKEGMFLFRAARKLRQFLKMNSTGNFDLHLLKVSEGTTILLNCTGQVKGRKPAALGEAQPTKSLEENKSLKEQKKLNDLCFLKRLLQEIKTCWNKILMGTKEH
light: DVVMTQSPLSLPVTLGQPASISCRSSQSLVHANTNTYLEWYQQRPGQSPRLLIYKVSNRFSGVPDRFSGSGSGTDFTLKISRVEAEDVGVYYCFQGTHVPNTFGQGTKLEIKRTVAAPSVFIFPPSDEQLKSGTASVVCLLNNFYPREAKVQWKVDNALQSGNSQESVTEQDSKDSTYSLSSTLTLSKADYEKHKVYACEVTHQGLSSPVTKSFNRGEC
notes: also called IgG1m G4S D74N
EC50 [1]: 0.0085 µg/mL
EC50 [2]: 0.0058 µg/mL

B3: anti PD-1 IL-7 Q22E bifunctional molecule, IgG4m isotype, (GGGGS)3 linker (other)
heavy: QIQLVQSGSELKKPGASVKVSCKASGYTFTHYAMNWVRQAPGQGLEWMGWINTNTGEPTYAQGFTGRFVFSLDTSVSTAYLQISSLKAEDTAVYYCAREREPGMDNWGQGTLVTVSSASTKGPSVFPLAPCSRSTSESTAALGCLVKDYFPEPVTVSWNSGALTSGVHTFPAVLQSSGLYSLSSVVTVPSSSLGTKTYTCNVDHKPSNTKVDKRV[… human IgG4 Fc with S228P L445P (EU numbers) …]GGGGSGGGGSGGGGSDCDIEGKDGKQYESVLMVSIDELLDSMKEIGSNCLNNEFNFFKRHICDANKEGMFLFRAARKLRQFLKMNSTGDFDLHLLKVSEGTTILLNCTGQVKGRKPAALGEAQPTKSLEENKSLKEQKKLNDLCFLKRLLQEIKTCWNKILMGTKEH
light: B1 light
notes: as m11 with IL-7 Q22E; also called IGG4 G4S3 IL7 Q22E
EC50 [4]: 0.0174 µg/mL
pSTAT5 EC50 in CD3 T cells of human PBMCs [5]: 84 ng/mL

B6: anti PD-1 IL-7 K81R bifunctional molecule, IgG4m isotype, (GGGGS)3 linker (other)
heavy: QIQLVQSGSELKKPGASVKVSCKASGYTFTHYAMNWVRQAPGQGLEWMGWINTNTGEPTYAQGFTGRFVFSLDTSVSTAYLQISSLKAEDTAVYYCAREREPGMDNWGQGTLVTVSSASTKGPSVFPLAPCSRSTSESTAALGCLVKDYFPEPVTVSWNSGALTSGVHTFPAVLQSSGLYSLSSVVTVPSSSLGTKTYTCNVDHKPSNTKVDKRV[… human IgG4 Fc with S228P L445P (EU numbers) …]GGGGSGGGGSGGGGSDCDIEGKDGKQYESVLMVSIDQLLDSMKEIGSNCLNNEFNFFKRHICDANKEGMFLFRAARKLRQFLKMNSTGDFDLHLLRVSEGTTILLNCTGQVKGRKPAALGEAQPTKSLEENKSLKEQKKLNDLCFLKRLLQEIKTCWNKILMGTKEH
light: B1 light
notes: as m11 with IL-7 K81R; also called IgG4 G4S3 IL7 K81R
EC50 [4]: 0.0202 µg/mL
pSTAT5 EC50 in CD3 T cells of human PBMCs [5]: 79 ng/mL

B7: anti PD-1 IL-7 SS3 bifunctional molecule, IgG4m isotype, (GGGGS)3 linker (other)
heavy: QIQLVQSGSELKKPGASVKVSCKASGYTFTHYAMNWVRQAPGQGLEWMGWINTNTGEPTYAQGFTGRFVFSLDTSVSTAYLQISSLKAEDTAVYYCAREREPGMDNWGQGTLVTVSSASTKGPSVFPLAPCSRSTSESTAALGCLVKDYFPEPVTVSWNSGALTSGVHTFPAVLQSSGLYSLSSVVTVPSSSLGTKTYTCNVDHKPSNTKVDKRV[… human IgG4 Fc with S228P L445P (EU numbers) …]GGGGSGGGGSGGGGSDCDIEGKDGKQYESVLMVSIDQLLDSMKEIGSNSLNNEFNFFKRHISDANKEGMFLFRAARKLRQFLKMNSTGDFDLHLLKVSEGTTILLNSTGQVKGRKPAALGEAQPTKSLEENKSLKEQKKLNDLSFLKRLLQEIKTCWNKILMGTKEH
light: B1 light
notes: as m11 with IL-7 SS3; also called IGG4 G4S3 IL7 SS3; IgG4 Fc G4S3 Fc IL-7 SS3
binding result [3]: binds
Kd [6]: 1360 nM
Kd2 [6]: 0.000602 s⁻¹
kon [6]: 1960 M⁻¹ s⁻¹
pSTAT5 EC50 in CD3 T cells of human PBMCs (second experiment, other donor) [5]: 4350 ng/mL

Other lines, results leading:

EC50 (read off the curve) [3]: ~0.009 µg/mL
B2: anti PD-1 IL-7 SS1 bifunctional molecule, IgG4m isotype, (GGGGS)3 linker (other)
heavy: QIQLVQSGSELKKPGASVKVSCKASGYTFTHYAMNWVRQAPGQGLEWMGWINTNTGEPTYAQGFTGRFVFSLDTSVSTAYLQISSLKAEDTAVYYCAREREPGMDNWGQGTLVTVSSASTKGPSVFPLAPCSRSTSESTAALGCLVKDYFPEPVTVSWNSGALTSGVHTFPAVLQSSGLYSLSSVVTVPSSSLGTKTYTCNVDHKPSNTKVDKRV[… human IgG4 Fc with S228P L445P (EU numbers) …]GGGGSGGGGSGGGGSDSDIEGKDGKQYESVLMVSIDQLLDSMKEIGSNSLNNEFNFFKRHICDANKEGMFLFRAARKLRQFLKMNSTGDFDLHLLKVSEGTTILLNCTGQVKGRKPAALGEAQPTKSLEENKSLKEQKKLNDLSFLKRLLQEIKTSWNKILMGTKEH
light: B1 light
notes: as m11 with IL-7 SS1; also called SS1 mutant (C2S-C141S + C34S-C129S)

EC50 [1]: 0.0157 µg/mL
EC50 [2]: 0.0054 µg/mL
B4: anti-PD-1 bifunctional molecule comprising IL-7 D74Q, GGGGS linker, IgG1N298A isotype (other)
heavy: QIQLVQSGSELKKPGASVKVSCKASGYTFTHYAMNWVRQAPGQGLEWMGWINTNTGEPTYAQGFTGRFVFSLDTSVSTAYLQISSLKAEDTAVYYCAREREPGMDNWGQGTLVTVSS[… human IgG1 constant region with changes …]GGGGSDCDIEGKDGKQYESVLMVSIDQLLDSMKEIGSNCLNNEFNFFKRHICDANKEGMFLFRAARKLRQFLKMNSTGQFDLHLLKVSEGTTILLNCTGQVKGRKPAALGEAQPTKSLEENKSLKEQKKLNDLCFLKRLLQEIKTCWNKILMGTKEH
light: B1 light
notes: also called IgG1m G4S D74Q

EC50 [4]: 0.0185 µg/mL
pSTAT5 EC50 in CD3 T cells of human PBMCs [5]: 77 ng/mL
B5: anti PD-1 IL-7 Q11E bifunctional molecule, IgG4m isotype, (GGGGS)3 linker (other)
heavy: QIQLVQSGSELKKPGASVKVSCKASGYTFTHYAMNWVRQAPGQGLEWMGWINTNTGEPTYAQGFTGRFVFSLDTSVSTAYLQISSLKAEDTAVYYCAREREPGMDNWGQGTLVTVSSASTKGPSVFPLAPCSRSTSESTAALGCLVKDYFPEPVTVSWNSGALTSGVHTFPAVLQSSGLYSLSSVVTVPSSSLGTKTYTCNVDHKPSNTKVDKRV[… human IgG4 Fc with S228P L445P (EU numbers) …]GGGGSGGGGSGGGGSDCDIEGKDGKEYESVLMVSIDQLLDSMKEIGSNCLNNEFNFFKRHICDANKEGMFLFRAARKLRQFLKMNSTGDFDLHLLKVSEGTTILLNCTGQVKGRKPAALGEAQPTKSLEENKSLKEQKKLNDLCFLKRLLQEIKTCWNKILMGTKEH
light: B1 light
notes: as m11 with IL-7 Q11E; also called IgG4 G4S3 IL7 Q11E; IgG4 IL7 Q11E
